Hit rate of the full screen: of about 360,000 compounds, about 6,000 (1.7%) were called active. Inconclusive results, whose numbers are uncertain, are shown with a selection of clear calls. Calls come from the whole dose curve; as a rule, active = well fitted cell-killing curve with a large enough effect; inconclusive = small, poorly fitted or top-dose-only effect, or effect the other way; inactive = flat fitted curve, though single readings scatter. No potency is given beside an inconclusive call; the fits are too rough.
test: qHTS for induction of synthetic lethality in tumor cells producing 2HG: qHTS for the HT-1080-NT fibrosarcoma cell line; conditions: HT-1080-NT fibrosarcoma viability, CellTiter-Glo ATP luminescence, 48 h; activity, negative = less viability: at 46.1 µM (top of the series) unless noted;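 note: NT is the 2HG producing partner of a matched IDH1 knockdown line; nearly all actives have a fitted effect of over 55% in size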;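 for activity, negative = less viability: 0% = DMSO-treated cells and -100% = media-only wells without cells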
Outline: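 Compounds were tested in concentration-response format on HT-1080-NT cells for 48 hours at 37 degrees C. Cell viability came from CellTiter-Glo luminescence; curves were classified by r2, response magnitude and activity.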
Potency is the fitted concentration of half-maximal effect; tags give direction and shape of the fitted curve.

| SMILES | Potency | activity, negative = less viability |
| --- | --- | --- |
| O=C(NC(NC(=S)Nc1ccc(Cl)cc1Cl)C(Cl)(Cl)Cl)c1cccc([N+](=O)[O-])c1 (stereo not given) | inconclusive [cytotoxic, single point] | – |
| Cc1nnc(NC(=O)CCS(=O)(=O)c2ccccc2)s1 | inconclusive [cytotoxic, single point] | – |
| Oc1ccc(Nc2nc3ccccc3nc2Nc2ccc(O)cc2)cc1 | active: 23.1 µM | – |
| CCOC(=O)c1sc(NC(=O)CSc2n[nH]c(-c3ccccc3)n2)c(C#N)c1C | inconclusive [cytotoxic, partial curve] | – |
| Cn1cc(CN2CCCC(CO)(Cc3ccccc3)C2)c2ccccc21 (stereo not given) | inconclusive [cytotoxic, partial curve] | – |
| CCCCCCC=C1CCC(CN2CCCC2)C1=O (stereo not given) | inconclusive [cytotoxic, single point] | – |
| O=C(Nc1ccccc1)Nc1cc(Cl)cc(Cl)c1 | active: 16.4 µM | – |
| N#Cc1c(-c2cccs2)cc(-c2ccccn2)nc1N | inconclusive [cytotoxic, single point] | – |
| O=C(c1ccco1)N(CCC(c1ccccc1)c1ccco1)Cc1ccc(F)cc1 (stereo not given) | inconclusive [cytotoxic, single point] | – |
| Cc1ccc(Cl)cc1N1CCN(C(=O)c2cc3c(=O)[nH]c4ccccc4c3n2C)CC1 | inconclusive [cytotoxic, full curve] | – |
| CC(C)NC(=O)C1(C)Cc2c(-c3cccc(C(F)(F)F)c3)ccnc2O1 (stereo not given) | – | inactive: 7.68% |
| CCOc1ccc(CN2C(=O)c3ccccc3C2C(=O)NCC2CCCO2)cc1 (stereo not given) | – | inactive: 5.54% |
| CCn1c2ccccc2c2cc(CN3CCN(Cc4cc(OC)ccc4O)CC3)ccc21 | inconclusive [cytotoxic, single point] | – |
| CC(NC(=O)Nc1ccc(Cl)c(Cl)c1)C(c1ccccc1)N1CCOCC1 (stereo not given) | active: 23.1 µM | – |
| N#CC1=C(N)NC(=S)C(C(N)=O)C1c1ccc(Cl)cc1Cl (stereo not given) | inconclusive [cytotoxic, single point] | – |
| O=C(CCl)Nc1cccc(S(=O)(=O)NC2=NCCC2)c1 | active: 18.4 µM | – |
| O=c1c(=O)n(CCO)n(CCO)c(=O)n1CCO | – | inactive: -4.49% |
| CC(=O)c1ccc(N(CC(=O)NC2CCCC2)C(=O)CNC(=O)c2cccs2)cc1 | inconclusive [rising, partial curve] | – |
| COc1ccc(-n2c(=O)c3c4c(sc3n(CC(=O)Nc3cc(C)[nH]n3)c2=O)CCCC4)c(OC)c1 | inconclusive [cytotoxic, single point] | – |
| Cn1c(=O)c2c(nc(NCC3CCCC(CN)C3)n2Cc2ccc(Cl)cc2Cl)n(C)c1=O (stereo not given) | inconclusive [cytotoxic, single point] | – |
| Cc1cccc(NS(=O)(=O)c2ccc(C(=O)N3CCCC3)cc2)c1C | – | inactive: -10.1% |
| CCN(CCNC(=O)Nc1ccc(Cl)cc1)c1ccccc1 | inconclusive [cytotoxic, single point] | – |
| COc1ccc(N=C2NN=C(c3c(C)[nH]c4ccccc34)CS2)cc1 | inconclusive [cytotoxic, single point] | – |
| CCN(C1CCCCC1)S(=O)(=O)c1ccc(S(=O)(=O)NCc2ccncc2)cc1 | inconclusive [cytotoxic, single point] | – |

| SMILES | Potency | activity, negative = less viability |
| --- | --- | --- |
| Cc1cc(S(=O)(=O)c2ccc(Cl)cc2)nc(S(=O)(=O)c2ccc(Cl)cc2)c1C#N | inconclusive [cytotoxic, single point] | – |
| CCOc1cc(/C=C2/C(=N)N3C=CSC3=NC2=O)ccc1OCCCOc1ccccc1C | inconclusive [cytotoxic, single point] | – |
| COc1ccc(OC)c(Nc2nc(NCc3ccco3)c3ccccc3n2)c1 | active: 20.6 µM | – |
| COc1ccc(-c2nn(C)c(=O)c3ccccc23)cc1CNC(=O)c1ccco1 | – | inactive: -11.8% |
| O=c1[nH]c(=O)n(Cc2ccco2)c2c1C(C(F)(F)F)(C(F)(F)F)N=C(c1ccc(F)cc1)N2 | inconclusive [cytotoxic, single point] | – |
| CCCCc1c(-c2ccccc2OC)ncn1Cc1ccc(Cl)cc1 | inconclusive [cytotoxic, single point] | – |
| COc1cc(Cl)cc(/C=N\NC(=O)c2ccc3c(c2)OCO3)c1O | active: 9.2 µM | – |
| CC(C)Cc1nnc(NC(=O)C2CCCC2)s1 | – | inactive: -3.26% |
| CCC1(C)Cc2c(sc3nc(NN)n(C)c(=O)c23)CO1 (stereo not given) | inconclusive [cytotoxic, partial curve] | – |
| Cc1ccc(Cl)cc1NC(=O)CC(O)(C(F)(F)F)C(F)(F)F | active: 20 µM | – |
| COc1ccc(Cl)cc1N1C(=O)/C(=C\c2sccc2C)N=C1SCC(=O)NC1CC1 | inconclusive [cytotoxic, single point] | – |
| Oc1ccc(Cl)cc1/C=C/c1ccc2cccc(O)c2n1 | inconclusive [cytotoxic, single point] | – |
| COc1cc2c(cc1OC)C(SC)=NC(C)(C)C2 | inconclusive [cytotoxic, single point] | – |
| N#Cc1c(SCC(=O)Nc2ccc(C(F)(F)F)cc2)sc2c(O)cc(=O)[nH]c12 | – | inconclusive: -13.3% [cytotoxic] |
| N#CSC(c1ccccc1)c1nc2ccccc2[nH]c1=O (stereo not given) | inconclusive [cytotoxic, single point] | – |
| O=C(Nc1ccc2nc(-c3cccs3)[nH]c2c1)c1cccs1 | inconclusive [cytotoxic, single point] | – |
| CC(=O)c1cccc(NC(=S)Nc2ccn(Cc3cccc4ccccc34)n2)c1 | – | inactive: -26.9% |
| Cc1ccccc1C(C(=O)NC1CCCC1)N(C(=O)Cc1cccs1)c1ccc2c(c1)OCCO2 (stereo not given) | inconclusive [cytotoxic, single point] | – |
| Nc1nc(Sc2c([N+](=O)[O-])cc(C(F)(F)F)cc2[N+](=O)[O-])n[nH]1 | inconclusive [cytotoxic, single point] | – |
| O=C(C(=O)N1CCN(c2ccccc2F)CC1)c1cn(CC(=O)N2CCCC2)c2ccccc12 | – | inactive: -0.781% |
| COc1cccc(CNc2nc3cc(-c4cscc4C)sc3c(=O)n2C)c1 | inconclusive [cytotoxic, single point] | – |
| CC(C)(C)c1ccc(Nc2n[nH]c3ccccc23)cc1 | inconclusive [cytotoxic, single point] | – |
| O=c1[nH]c(CN2CCN(S(=O)(=O)/C=C/c3ccccc3)CC2)nc2cc(Cl)ccc12 | active: 9.2 µM | – |
| O=C(N/N=C/c1ccncc1)c1cccc(S(=O)(=O)Nc2ccc(Cl)cc2)c1 | – | inactive: -0.824% |

| SMILES | Potency | activity, negative = less viability |
| --- | --- | --- |
| CC12CCCC[C@@H]1CCC1C2CCC2(C)C1CC[C@@]2(O)CNCCO (stereo not given in full) | inconclusive [cytotoxic, single point] | – |
| Cc1cc2nc3c(=O)n(C4CCCCC4)c(=O)[nH]c3nc2cc1N | inconclusive [cytotoxic, single point] | – |
| NC(=O)COC(=O)c1ccccc1Nc1ccc(SC(F)F)cc1 | inconclusive [cytotoxic, single point] | – |
| Cc1ccc(-c2cc(C(=O)N3CCOCC3)c3ccccc3n2)o1 | inconclusive [cytotoxic, partial curve] | – |
| CC(C)=CCC[C@H](C)CC1Cc2[nH]c(=S)[nH]c(=O)c2C(c2ccc(Cl)cc2)O1 (stereo not given in full) | inconclusive [cytotoxic, single point] | – |
| CCSc1ccc(NC(=O)c2cccnc2)cc1 | inconclusive [cytotoxic, single point] | – |
| Cc1ccc(Sc2c(C)nn(C(=O)c3cccc(S(=O)(=O)N4CCOCC4)c3)c2C)cc1 | inconclusive [cytotoxic, single point] | – |
| Cc1nc2cc(-c3cccc(F)c3)nn2c(C)c1CCC(=O)N1CCN(c2ccccn2)CC1 | – | inactive: 0.288% |
| Cc1ccc(Nc2c(-c3ccccc3)nc3cnccn23)cc1 | – | inactive: -7.44% |
| Oc1cccc(-c2nc3c4c(ncn3n2)-c2ccccc2CC42CCCC2)c1 | inconclusive [cytotoxic, single point] | – |
| CC(=O)c1ccc(Nc2cc(C)nc3ccccc23)cc1 | inconclusive [cytotoxic, single point] | – |
| O=C1CCCc2cc3c(cc21)CC1(C3)Cc2cc3c(cc2C1)C(=O)CCC3 | inconclusive [cytotoxic, full curve, poor fit] | – |
| O=S(=O)(c1ccccc1)c1nc(-c2ccccc2Cl)oc1NCCCN1CCOCC1 | – | inactive: -16.2% |
| Cn1nnnc1SCCNCc1ccccc1OCc1ccccc1Cl | inconclusive [cytotoxic, single point] | – |
| CCc1ccc(NC(=O)NCc2ccc3c(c2)OCO3)cc1 | – | inactive: 4.64% |
| COC(=O)c1ccc(OCC(=O)NC2CCCCCCC2)cc1 | – | inactive: 1.36% |
| CCn1c(/C=C/Nc2ccccc2)[n+](CC)c2cc(Cl)c(Cl)cc21 | – | inactive: -16.8% |
| CC1=NN(c2nc(C)cc(C)n2)C(=O)C1CCC(C)C (stereo not given) | active: 7.94 µM | – |
| O=C(Nc1ccc(-n2nncc2-c2ccco2)cc1)c1cc2ccccc2oc1=O | inconclusive [cytotoxic, single point] | – |
| COc1ccc(C2=NNC(=Nc3cc(S(=O)(=O)N(C)C)ccc3C)SC2)c(OC)c1 | inconclusive [cytotoxic, single point] | – |
| COC(=O)c1c(NC(=O)COC(=O)c2ccc(Cl)nc2)sc(C)c1C | – | inactive: 2.26% |
| C=CCC[C@@H](Cc1ccc(F)cc1)C(=O)OC[C@@H](NC(=O)[C@@H](CC=C)CC(=O)N[C@@H](CO)Cc1ccccc1)C(C)(C)C | inconclusive [cytotoxic, single point] | – |

— PubChem BioAssay AID686970 (National Center for Advancing Translational Sciences (NCATS), 2013)
